Substitutions are numbered along the chain they refer to. Results are given in words; binding and its absence hold for the method and conditions named. Some results given as binding are weak or reduced against the parent protein; the word gives no strength.
Columns and labels:
[1] = target: T1, Peptide F (monkey PAR-2), N-terminal biotinylated (Monkey (Macaca mulatta)); test: peptide ELISA
T1 sequence (peptide, N-terminal biotin via G4S linker): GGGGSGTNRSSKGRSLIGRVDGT

[2] = target: T2, Peptide G (rat PAR-2), N-terminal biotinylated (Rat (Rattus norvegicus)); test: SPR, peptide immobilized; SPR, low-density (<1RU) surface of biotinylated peptide
T2 sequence (peptide, N-terminal biotin via G4S linker): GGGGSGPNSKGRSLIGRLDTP

[3] = target: T2, Peptide G (rat PAR-2), N-terminal biotinylated (Rat (Rattus norvegicus)); test: peptide ELISA titration; ELISA titration, antibody 13.3 nM to 0.22 pM, sigmoidal fit
[4] = target: T3, Peptide G (rat PAR-2), C-terminal biotinylated (Rat (Rattus norvegicus)); test: as above
T3 sequence (peptide, C-terminal biotin via G4S linker): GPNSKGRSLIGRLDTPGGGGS

[5] = target: T4, Peptide E (mouse PAR-2), N-terminal biotinylated (Mouse (Mus musculus)); test: peptide ELISA titration; ELISA titration, antibody 13.3 nM to 0.22 pM on peptide-coated plate
T4 sequence (peptide, N-terminal biotin via G4S linker): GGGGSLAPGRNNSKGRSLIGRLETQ

B1: H4H588N (antibody, human IgG4, V domains shown)
VH: EVQLLESGGGLVQPGGSLRLSCAASGFTFSSYAMTWVRQAPGKGLYWVSAISGGRGSAYYADSVKGRFTISRDNSKNTLYLQMNSLRAEDTAVYYCAKEGDSGYDLAYWGRGTLVTVSS
VL: DIQMTQSPSSLSASVGDRVTITCRARQGISNNLAWLQQKPGKAPKSLIYAASSLQSGIPSKFSGSGSGTYFTLTISSLQPEDFATYYCQQYKSSPLTFGGGTKVEIK
binding [1]: binds
binding [2]: no binding
binding [3]: no binding (tested: EC50 >50 nM)

B2: H4H591N (antibody, human IgG4, V domains shown)
VH: EVQLLESGGGLVQPGGSLRLSCATSGFTFSRYTMTWVRQAPGKGLFWVSGIGGSGGRAYYADSVKGRFTLSRDNSKNTLYLQMNSLRAEDTAVYYCAKEGDSGYDLDYWGRGTLVTVSS
VL: B1 VL with S7Y, N32Y, S56R, I58V, Y70D, F83S, S93I
binding [1]: binds
binding [4]: no binding (tested: EC50 >50 nM)
binding [3]: no binding (tested: EC50 >50 nM)
binding [5]: no binding (tested: EC50 >50 nM)

B3: H4H618N (antibody, human IgG4, V domains shown)
VH: EVQLLESGGGLVQPGGSLRLSCAASGFTFRSYTMTWVRQAPGKGLDWVSGITDSGAGTYYGDSVKGRFTISRDNSKNTLYLQMNSLRAEDTAVYYCVKEGDSGYDLDYWGQGTLVTVSS
VL: B1 VL with R26S, N31T, N32Y, A51T, I58V, G66R, Y70D
binding [1]: binds
